Reference: publication PMC4950921 (Biochimica et biophysica acta, 2016)

Biological target: the molecule itself
Assay: FRET or BRET

B1: EphA2 receptor tyrosine kinase, wild-type (EphA2-15aa-mTurq / EphA2-15aa-eYFP) (receptor)
chain: [skipping about 500 residues]IGGVAVGVVLLLVLAGVGFFIHRRRKNQRARQSPEDVYFSKSEQLKPLKTYVDPHTYEDPNQAVLKFTTEIHPSCVTRQKVIGAGEFGEVYKGMLKTSSGKKEVPVAIKTLKAGYTEKQRVDFLGEAGIMGQFSHHNIIRLEGVISKYKPMMIITEYMENGALDKFLREKDGEFSVLQLVGMLRGIAAGMKYLANMNYVHRDLAARNILVNSNLVCKVSDFGLSRVLEDDPEATYTTSGGKIPIRWTAPEAISYRKFTSASDVWSFGIVMWEVMTYGERPYWELSNHEVMKAINDGFRLPTPMDCPSAIYQLMMQCWQQERARRPKFADIVSILDKLIRAPDSLKTLADFDPRVSIRLPSTSGSEGVPFRTVSEWLESIKMQQYTEHFMAAGYTAIEKVVQMTNDDIKRIGVRLPGHQKRIAYSLLGLKDQVNTVGIPI
For B1, the “stoichiometry N” value was 2.
